Source: the supplement of paper PMC8728848
This is one part of the list.

Columns and labels:
Assay in all cases: glycan array binding signal (z-score within array); higher = stronger binding
Conditions in all cases: glycan notation: IUPAC condensed, linker removed
[1] = molecular target: 3-Anhydro-Gal(a1-3)Gal(b1-4)3-Anhydro-Gal(a1-3)Gal4S
Summary of the method: (§1)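 Glycan array binding is given as a within-array Z-score, which can be read as non-binding when negative. The arrays, 3228 of them, came from the Consortium for Functional Glycomics database and were retained only where the protein sequence was available. Z-scores were averaged across arrays of the same protein sequence at different concentrations or buffers and across linkers.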

[2] = molecular target: 3-Anhydro-Gal(a1-3)Gal4S(b1-4)3-Anhydro-Gal(a1-3)Gal4S
Summary of the method: as §1

[3] = molecular target: 3-Anhydro-Gal(a1-3)Gal4S(b1-4)3-Anhydro-Gal(a1-3)Gal4S(b1-4)3-Anhydro-Gal(a1-3)Gal4S
Summary of the method: as §1

[4] = molecular target: 3-Anhydro-Gal(a1-3)Gal4S(b1-4)3-Anhydro-Gal(a1-3)Gal4S(b1-4)3-Anhydro-Gal(a1-3)Gal4S(b1-4)3-Anhydro-Gal(a1-3)Gal4S
Summary of the method: as §1

[5] = molecular target: 3-Anhydro-Gal(a1-3)Gal4S(b1-4)3-Anhydro-Gal2S(a1-3)Gal4S(b1-4)3-Anhydro-Gal(a1-3)Gal4S
Summary of the method: as §1

[6] = molecular target: 3dGal(b1-3)[Fuc(a1-4)]Glc
Summary of the method: as §1

3dGal(b1-4)Glc = molecular target: 3dGal(b1-4)Glc
Summary of the method: as §1

[7] = molecular target: Ara(a1-5)Ara(a1-5)Ara(a1-5)Ara(a1-5)Ara(a1-5)Ara
Summary of the method: as §1

[8] = molecular target: Ara(a1-5)Ara(a1-5)Ara(a1-5)Ara(a1-5)Ara(a1-5)Ara(a1-5)Ara
Summary of the method: as §1

Fuc(a1-2)Gal = molecular target: Fuc(a1-2)Gal
Summary of the method: as §1

[9] = molecular target: Fuc(a1-2)Gal(b1-3)GlcNAc(b1-3)Gal(b1-4)Glc
Summary of the method: as §1

[10] = molecular target: Fuc(a1-2)Gal(b1-3)GlcNAc(b1-3)[Fuc(a1-3)[Gal(b1-4)]GlcNAc(b1-6)]Gal(b1-4)Glc
Summary of the method: as §1

[11] = molecular target: Fuc(a1-2)Gal(b1-3)[Fuc(a1-4)]GlcNAc(b1-3)Gal(b1-4)Glc
Summary of the method: as §1

[12] = molecular target: Fuc(a1-2)Gal(b1-3)[Fuc(a1-4)]GlcNAc(b1-3)Gal(b1-4)[Fuc(a1-3)]GlcNAc(b1-3)Gal(b1-4)Glc
Summary of the method: as §1

[13] = molecular target: Fuc(a1-2)Gal(b1-3)[Fuc(a1-4)]GlcNAc(b1-3)[Fuc(a1-2)]Gal(b1-4)Glc
Summary of the method: as §1

[14] = molecular target: Fuc(a1-2)Gal(b1-3)[Fuc(a1-4)]GlcNAc(b1-3)[Fuc(a1-3)[Gal(b1-4)]GlcNAc(b1-6)]Gal(b1-4)Glc
Summary of the method: as §1

[15] = molecular target: Fuc(a1-2)Gal(b1-3)[Fuc(a1-4)]GlcNAc(b1-3)[Gal(b1-4)GlcNAc(b1-6)]Gal(b1-4)Glc
Summary of the method: as §1

[16] = molecular target: Fuc(a1-2)Gal(b1-4)[Fuc(a1-3)]GlcNAc(b1-3)Gal(b1-4)Glc
Summary of the method: as §1

[17] = molecular target: Fuc(a1-2)Gal(b1-4)[Fuc(a1-3)]GlcNAc(b1-3)[Fuc(a1-2)]Gal(b1-4)Glc
Summary of the method: as §1

Fuc(a1-2)[Gal(a1-3)]Gal = molecular target: Fuc(a1-2)[Gal(a1-3)]Gal
Summary of the method: as §1

[18] = molecular target: Fuc(a1-2)[Gal(a1-3)]Gal(b1-4)GlcNAc(b1-3)Gal(b1-4)Glc
Summary of the method: as §1

[19] = molecular target: Fuc(a1-2)[GalNAc(a1-3)]Gal
Summary of the method: as §1

[20] = molecular target: Fuc(a1-2)[GalNAc(a1-3)]Gal(b1-3)GlcNAc(b1-3)Gal(b1-4)Glc
Summary of the method: as §1

[21] = molecular target: Fuc(a1-2)[GalNAc(a1-3)]Gal(b1-3)[Fuc(a1-4)]GlcNAc(b1-3)Gal(b1-4)Glc
Summary of the method: as §1

[22] = molecular target: Fuc(a1-2)[Neu5Ac(bond)]Gal(b1-3)GlcNAc(b1-3)Gal(b1-4)Glc
Summary of the method: as §1

Fuc(a1-3)GlcNAc6S = molecular target: Fuc(a1-3)GlcNAc6S
Summary of the method: as §1

[23] = molecular target: Fuc(a1-3)[3dGal(b1-4)]Glc
Summary of the method: as §1

[24] = molecular target: Fuc(a1-3)[Gal(b1-4)]GlcNAc
Summary of the method: as §1

[25] = molecular target: Fuc(a1-3)[Gal(b1-4)]GlcNAc(b1-3)Gal(b1-4)Glc
Summary of the method: as §1

[26] = molecular target: Fuc(a1-3)[Gal(b1-4)]GlcNAc(b1-3)Gal(b1-4)[Fuc(a1-3)]Glc
Summary of the method: as §1

Measured: glycan array binding signal (z-score)

B1: Malectin (Xenopus laevis), Q6INX3 (protein)
chain: SGLADKVIWAVNAGGESHVDVHGIHYRKDPLEGRVGRASDYGMKLPILRSNPEDQVLYQTERYNEDSFGYDIPIKEEGEYVLVLKFAEVYFAQSQQKVFDVRVNGHTVVKDLDIFDRVGHSTAHDEIIPISIKKGKLSVQGEVSTFTGKLSVEFVKGYYDNPKVCALFIMKGTADDVPMLQPHPGLE
-0.064: Fuc(a1-2)Gal | [21]
-0.073: [8] | [14] | [17] | [20]
-0.074: Fuc(a1-2)[Gal(a1-3)]Gal | [23]
-0.072: [12]
-0.075: Fuc(a1-3)GlcNAc6S | [24]
-0.07: 3dGal(b1-4)Glc | [13] | [15]
-0.068: [9] | [25]
-0.069: [7]
-0.067: [10] | [18]
-0.076: all other assays above
